Test results published in PMC4336329 (PLoS ONE, 2015).
Out of some 310,000 compounds screened, about 2,200 (0.71%) showed an effect of 50% or more. Effects have a minus sign here. This is one part of the list. Where a SMILES comes first, the peptide text is derived from it. The star is where a group is joined. Boc = CC(C)(C)OC(=O)*

target: human ether-à-go-go-related gene (hERG) potassium channel (human, UniProt Q12809); assay: primary screen, population patch clamp on CHO cells stably expressing hERG
Sequence (Q12809 whole entry, looked up): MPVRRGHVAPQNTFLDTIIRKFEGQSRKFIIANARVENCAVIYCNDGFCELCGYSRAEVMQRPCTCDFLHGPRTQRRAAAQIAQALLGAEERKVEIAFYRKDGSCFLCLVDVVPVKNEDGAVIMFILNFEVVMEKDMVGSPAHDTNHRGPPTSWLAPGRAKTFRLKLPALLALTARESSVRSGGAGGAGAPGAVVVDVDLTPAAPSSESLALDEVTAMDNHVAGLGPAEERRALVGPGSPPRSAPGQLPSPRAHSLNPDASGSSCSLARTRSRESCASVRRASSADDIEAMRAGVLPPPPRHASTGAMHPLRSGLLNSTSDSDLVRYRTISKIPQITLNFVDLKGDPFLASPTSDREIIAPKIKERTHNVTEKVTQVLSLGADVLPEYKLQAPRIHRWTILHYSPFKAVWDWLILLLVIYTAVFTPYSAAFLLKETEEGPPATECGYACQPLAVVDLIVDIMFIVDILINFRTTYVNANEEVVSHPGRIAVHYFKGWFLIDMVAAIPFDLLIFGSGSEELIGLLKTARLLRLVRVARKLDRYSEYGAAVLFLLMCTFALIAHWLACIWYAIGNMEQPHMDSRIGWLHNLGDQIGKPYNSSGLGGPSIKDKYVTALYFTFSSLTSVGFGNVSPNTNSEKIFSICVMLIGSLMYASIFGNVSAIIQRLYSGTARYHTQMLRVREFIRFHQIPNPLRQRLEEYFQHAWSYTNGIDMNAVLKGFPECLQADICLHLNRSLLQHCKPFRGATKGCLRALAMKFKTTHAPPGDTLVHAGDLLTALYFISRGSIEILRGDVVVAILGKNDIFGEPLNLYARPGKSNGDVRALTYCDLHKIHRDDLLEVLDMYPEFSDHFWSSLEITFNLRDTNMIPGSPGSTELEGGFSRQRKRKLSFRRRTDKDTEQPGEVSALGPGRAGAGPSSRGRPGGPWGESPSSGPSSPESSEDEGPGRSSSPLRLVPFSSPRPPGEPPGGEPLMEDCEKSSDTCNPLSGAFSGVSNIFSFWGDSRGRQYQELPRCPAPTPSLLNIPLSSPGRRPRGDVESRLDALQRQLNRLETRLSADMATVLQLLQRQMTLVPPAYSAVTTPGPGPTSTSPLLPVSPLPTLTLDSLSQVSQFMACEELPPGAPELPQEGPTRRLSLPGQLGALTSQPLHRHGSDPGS

| SMILES | hERG current change (%, negative = inhibition) at 1uM [%] |
| --- | --- |
| CCOC(=O)c1cccc(NC(=O)Cn2cnc3c2c(=O)n(C)c(=O)n3C)c1 | -4.49 |
| CCCC(=O)Nc1ccc(Cl)c(NC(=O)c2cccc(OC)c2)c1 | -0.138 |
| Cc1c(C(=O)OC/C(O)=C(\C#N)c2nc3ccccc3[nH]2)oc2ccccc12 | 7 |
| O=c1oc2c(CN3CCCCC3)c(O)ccc2c2c1CCCC2 | 5.8 |
| COc1ccc2cc(C(=O)N(C)Cc3ccccc3)[nH]c2c1 | 15.7 |
| Cc1cc(C)n(-c2nnc(C)n2/N=C/c2cc(Br)ccc2OCc2ccccc2)n1 | 9.55 |
| O=C(NCc1ccc(F)cc1)Nc1cccc([N+](=O)[O-])c1 | 0.529 |
| C[n+]1cc[nH]c1SCC(=O)c1ccc(Cl)cc1.[Br-] | 10.2 |
| CN(C(=O)CSc1nnnn1-c1ccc(O)cc1)C1CCS(=O)(=O)C1 (stereo not shown) | 19.7 |
| CCCCNC(=O)N1CCN(c2ncccn2)CC1 | 8.42 |
| Cc1ccc(-n2c(SCC(=O)N/N=C/c3c(C)nn(-c4ccccc4)c3C)nc3ccccc3c2=O)cc1 | 0.705 |
| COc1cccc(OCC(=O)Nc2cc(NC(=O)COc3cccc(OC)c3)cc(C(=O)O)c2)c1 | 14.4 |
| CCCNC(=O)NC(=O)COC(=O)/C=C/c1cc(Br)ccc1F | 1.61 |
| N=c1oc2cc(O)ccc2cc1C(=O)Nc1ccc(Cl)cc1 | 19.6 |
| CCc1ccc(N2C(=O)NC(=O)/C(=C\c3cc(C)n(-c4cc(C(=O)O)cc(C(=O)O)c4)c3C)C2=O)cc1 | 10.9 |
| CCOc1ccc2nc(NC(NC(C)=O)(C(=O)OC)C(F)(F)F)sc2c1 (stereo not shown) | -0.806 |
| Cc1ccsc1/C=C/c1ccc2cccc(O)c2n1 | 12.1 |
| COC(=O)c1ccc(-n2c(C)cc(C(=O)CSc3ccc(NC(C)=O)cc3)c2C)cc1 | 12.5 |
| CCC12CN3CCN(CC(C3)/C1=N\NC(=O)Nc1ccccc1)C2 | 9.58 |
| Cc1ccc2nc(SCC(=O)N3CCN(c4ccccc4)CC3)nc(=O)n2c1 | -12.4 |
| CC(C)Cc1nn2c(=O)cc(CSCC(=O)Nc3ccccc3F)nc2s1 | 4.99 |
| CCC(=O)Nc1nc(-c2ccccc2)nc(SC)c1C(C)=O | 8.72 |

| SMILES | hERG current change (%, negative = inhibition) at 1uM [%] |
| --- | --- |
| COc1ccc(S(=O)(=O)NCC2CCCN(Cc3ccc(C)o3)C2)cc1 (stereo not shown) | 5.15 |
| O=C(Nc1ccccc1)O/N=C/c1ccc(F)cc1 | 6.79 |
| Cn1cc2cccc([N+](=O)[O-])c2n1 | 7.83 |
| O=C(NC1=NCCS1)C1CC(=O)N(c2ccccc2)C1 (stereo not shown) | 4.6 |
| COc1ccc(S(=O)(=O)N2CCN(c3ncccn3)CC2)cc1[N+](=O)[O-] | -0.738 |
| COC(=O)C1=C(C)N(c2ccc(C)c(C)c2)/C(=C/c2cccs2)C1=O | 2.06 |
| Cc1cc(N2CCOCC2)n2cc(-c3ccccc3)nc2n1 | -14.6 |
| COc1ccccc1C(=O)NCCC(=O)N1CCN(c2cccc(C(F)(F)F)c2)CC1 | 2.48 |
| Cc1ccc(CCNC(=O)CCNS(=O)(=O)c2ccc3c(c2)c(=O)n(C)c(=O)n3C)cc1 | 16.5 |
| CCOC(=O)c1nc(C)sc1-c1ccnn1S(=O)(=O)c1ccc(C)cc1 | 11.4 |
| CCOc1ccc(/C=N/NC(=S)NC2CC3CCC2C3)cc1 (stereo not shown) | 2.26 |
| CC(=O)c1ccc(-n2cc(C#N)c(=O)[nH]c2=O)cc1 | 6.46 |
| O=[N+]([O-])c1cccc(C2N3CCCN23)c1 (stereo not shown) | 12.1 |
| CC(C)(C)NC(=O)c1sccc1C(=O)O | 8.71 |
| CCCS(=O)(=O)N1CCCC(C(=O)NCCCN(C)c2ccccc2)C1 (stereo not shown) | 5.24 |
| Cc1cccc(-n2nc3c(c2NC(=O)c2ccco2)CS(=O)C3)c1C (stereo not shown) | 7.55 |
| CCc1nc(SCc2ccc(F)cc2)[nH]c(=O)c1C#N | 12.7 |
| COc1ccc(C(=O)NC(=S)Nc2ccccc2N2CCOCC2)cc1[N+](=O)[O-] | 13.4 |
| Cc1cc(C(=O)CSc2nnc(-c3cccnc3)n2-c2ccccc2F)c(C)n1CC1CCCO1 (stereo not shown) | -1.34 |
| CC(=O)NCc1cc(-c2ccc(Cl)cc2)no1 | 1.4 |
| COCc1nc2ccccc2n1Cc1ccccc1Br | -9.83 |
| N#C/C(=C\c1ccncc1)c1nc2c(s1)CCCC2 | 8.56 |

| SMILES | hERG current change (%, negative = inhibition) at 1uM [%] |
| --- | --- |
| O=C(COc1ccc(S(=O)(=O)NC2CCCCC2)cc1Cl)N1CCN(c2ccccc2)CC1 | -8.01 |
| C[C@@]12C(=O)N(CC3CC3)CC(=O)N1[C@H](C1CC1)[C@@H]1C(=O)N(c3ccccc3)C(=O)[C@@H]12 | -3.17 |
| Cc1cc(N(C)N)nc(NC(=O)NS(=O)(=O)c2ccccc2Cl)n1 | 8.66 |
| COc1ccc(C(=O)/C=C2/c3ccccc3CC(C)(C)N2C)cc1 | 17.6 |
| CC(C)C(NC(=O)OC(C)(C)C)C(=O)N1CCCC1C(=O)NC(Cc1ccccc1)C(N)=O (stereo not drawn) (Boc-Val-Pro-Phe-NH2; configuration not given here) | 3.9 |
| CCOc1cccc(-c2cc(C(=O)Nc3ccon3)c3ccccc3n2)c1 | 10.6 |
| COc1ccccc1-c1c(C(F)(F)F)oc2c(CN(C)C)c(O)ccc2c1=O | 12.2 |
| COc1cc2c(cc1OC)CN(C(=O)c1cc3ccccc3oc1=O)CC2 | 4.01 |
| O=C(O)CCn1cc(C2CC(c3ccccc3)=NN2c2ccccc2)c(-c2ccccc2)n1 (stereo not shown) | 45.1 |
| COC(=O)c1ccccc1CSc1nsc(C)c1C#N | 17.9 |
| COc1ccc(CNC(=O)CN(c2ccc(C)cc2)S(=O)(=O)c2c(C)nn(C)c2C)cc1 | 11.5 |
| Cc1c(CCOC(=O)c2ccccc2)sc[n+]1CC(=O)c1ccc(Br)cc1.[Br-] | -82.8 |
| COC(=O)c1ccccc1S(=O)(=O)Oc1ccc(-c2ccc(C(=O)O)cc2)cc1 | 9.49 |
| O=C(CN(Cc1ccccc1)S(=O)(=O)c1ccccc1)N/N=C/c1ccc([N+](=O)[O-])cc1 | 11.6 |
| Cc1ccc(C)c(N2CCN(C(=O)c3csc(C)c3C)CC2)c1 | 9.56 |
| CC(=O)N1CCc2cc(Br)cc(S(=O)(=O)CCC(=O)N3CCN(c4ccccn4)CC3)c21 | 6.2 |
| COc1ccc(CC2(CCc3ccncc3)C(=O)NC(=O)NC2=O)c(OC)c1 | 11.6 |
| O=c1nc2sc3ccccc3n2c(=O)n1-c1ccc(Cl)cc1 | 8.14 |
| O=C1N(Cc2cccc(Cl)c2)C[C@@H]2C[C@@H](c3cccn3-c3cccnc3)N3CCC[C@@]123 | 3.63 |
| COc1ccc(CCn2c(O)c(C=Nc3ccc(NC(C)=O)cc3)c(=O)[nH]c2=O)cc1OC | 17.9 |
| CC1CCN(CCCOc2ccc(Br)cc2Cl)CC1 | -20 |
| CCCC(=O)Nc1ccc(NC(=O)c2cc3ccccc3o2)c(OC)c1 | 15.4 |

| SMILES | hERG current change (%, negative = inhibition) at 1uM [%] |
| --- | --- |
| Cn1c(=O)c2c(-c3cccc(Br)c3)c(C#N)c(N)nc2n(C)c1=O | 12.1 |
| Cc1cccc(NC(=O)CSCC(=O)OCc2ccccn2)c1 | 16.2 |
| CCC(C(=O)NCc1cccnc1)n1nc(C)n2c(cc3occc32)c1=O (stereo not shown) | 6.82 |
| CCC(C)(C)NC(=O)C(c1ccc(OC)cc1)N(C(=O)CCC(=O)Nc1cc(C)on1)C1CC1 (stereo not shown) | 1.45 |
| COc1cc(OC)cc(C(=O)NNC(=O)CNC(=O)c2cccs2)c1 | 18.9 |
| CCC1Oc2ccc(C)cc2N(CC(=O)NCc2cc(OC)ccc2OC)C1=O (stereo not shown) | 8.23 |
| COc1ccc(/C=N/Nc2nc(=O)[nH]nc2C)cc1[N+](=O)[O-] | 13.5 |
| COC(=O)COc1ccc(S(=O)(=O)NCCC2=CCCCC2)cc1C | 4.65 |
| O=C(COC(=O)c1ccco1)NCc1ccccc1Cl | -0.0931 |
| O=C(Nc1ccc(F)cc1)NC1CCCCCCC1 | 20 |
| Cc1cc(=O)oc2cc(NC(=O)CCCC(=O)O)ccc12 | 12.5 |
| CN1CCN(C(=O)CCN2C(=O)/C(=C\c3ccc(Cl)cc3)SC2=S)CC1 | 7.76 |
| CCc1cc(C(=O)N2CCCc3ccccc32)sc1C | 15.7 |
| COc1ccc(Nc2ncnc3ccc(C)cc23)cc1 | 9.97 |
| Cl.O=C(CN1CCOCC1)Nc1ccc(OC(F)(F)F)cc1 | 8.55 |
| COc1ccc(-c2cc(C(F)(F)F)n3nc(C(=O)N(C)Cc4ccccc4)cc3n2)cc1OC | 6.34 |
| COc1ccc(CCN(CC(=O)NCc2ccc(F)cc2)C(=O)c2snc(C(N)=O)c2N)cc1OC | -3.03 |
| Cc1ccc(S(=O)(=O)c2nc(S(=O)(=O)CCO)sc2N2CCOCC2)cc1 | 15.3 |
| CC(C)c1c(C#N)c(N)nc(SCC(=O)c2cc3ccccc3oc2=O)c1C#N | 9.61 |
